According to PubChem BioAssay AID2675 (National Center for Advancing Translational Sciences (NCATS), 2010):
Among all 280,000 compounds or so, about 100 (0.036%) were called active. The shares of active, inactive and inconclusive entries below differ from those in the screen. Calls follow the shape of the dose curve; as a rule, active = well fitted inhibition curve with a large enough effect in the signal ratio, with a control signal flat (not every such curve was filed as active); inconclusive = small, poorly fitted or top-dose-only effect, or effect the other way, or a change in a side signal; inactive = no such curve, though single readings can be large or run the other way; the % refers to the signal ratio. Potencies of inconclusive entries are doubtful fits and often do not repeat. A note “side channel” means that the fit belongs to a control or component signal, not to the main read-out.

The molecules below were run against Muscleblind-like protein 1 (Homo sapiens) (UniProt Q9NR56) (assay: qHTS Assay for Inhibitors of MBNL1-poly(CUG) RNA binding). Details: TR-FRET MBNL1-His/biotin-(CUG)12 binding, 665/545 ratio; series mostly up to 57.5 µM.
UniProt Q9NR56, sequence (Q9NR56 whole entry, looked up): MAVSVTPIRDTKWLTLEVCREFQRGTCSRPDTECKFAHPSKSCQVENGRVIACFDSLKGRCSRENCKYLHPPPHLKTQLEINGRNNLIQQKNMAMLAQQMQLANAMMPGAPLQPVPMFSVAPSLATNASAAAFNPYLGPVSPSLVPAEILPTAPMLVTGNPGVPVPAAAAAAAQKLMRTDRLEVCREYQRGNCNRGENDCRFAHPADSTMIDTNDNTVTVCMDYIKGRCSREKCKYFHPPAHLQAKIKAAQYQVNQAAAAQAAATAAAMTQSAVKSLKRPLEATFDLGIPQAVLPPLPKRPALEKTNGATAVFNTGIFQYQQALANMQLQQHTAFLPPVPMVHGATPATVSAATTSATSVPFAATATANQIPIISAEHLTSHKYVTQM
Method in brief: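 Compound titration spanned 92 nM–58 uM against the MBNL1-His/biotin-(CUG)12 complex. After 60 min at room temperature with 5 nM streptavidin-XL665 and 0.055 ng/ul terbium anti-His, ratiometric 665/545 nm emission (Ex 340 nm) normalized to controls.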
Potency is read from the fitted curve at half-maximal effect; tags tell the direction and shape of the fitted curve or compound fluorescence and quenching.

| Structure (SMILES) | Potency |
| --- | --- |
| CC(Sc1nnnn1C1CCCCC1)C(=O)O (stereo not drawn) | inconclusive: 17.8 µM [quencher, side channel, partial curve] |
| CCN(CC(=O)NCc1cccs1)C(=O)c1cccc(S(=O)(=O)N2CCc3ccccc32)c1 | inactive |
| O=C(Nc1ccc(N2CCOCC2)cc1)c1ccc([N+](=O)[O-])o1 | inconclusive: 10 µM [quencher, side channel, partial curve] |
| COc1ccc(S(=O)(=O)NCCSC(C)(C)C)c(Cl)c1Cl | inactive |
| COc1ccc(C(=O)C2CCCN(Cc3ccc4nonc4c3)C2)c(OC)c1 (stereo not drawn) | inconclusive: 31.6 µM [quencher, side channel, single point] |
| CC(=O)c1cc2c(cc1NC(=O)CSc1nc3ccccc3[nH]1)OCO2 | inconclusive: 0.891 µM [quencher, side channel, full curve, poor fit] |
| Oc1ccc(-c2csc(Nc3ccccn3)n2)c(O)c1 | inactive |
| Cc1cccc(N2CC(C(=O)Nc3nnc(SCC(=O)NCC4CCCO4)s3)CC2=O)c1 (stereo not drawn) | inconclusive: 0.891 µM [quencher, side channel, full curve] |
| c1ccc(-c2nnc(-c3ccncc3)nc2-c2ccccc2)cc1 | inconclusive: 11.2 µM [quencher, side channel, partial curve] |
| Nc1ccc2c(C(F)(F)F)cc(=O)oc2c1 | inconclusive: 0.708 µM [quencher, side channel, full curve, poor fit] |
| COC(=O)Cc1ccc(NC(=O)c2ccccc2Cl)cc1 | inactive |
| O=C(c1cc2sccc2n1Cc1ccc(F)cc1)N1CCCc2ccccc21 | inconclusive: 8.91 µM [quencher, side channel, single point] |
| O=C(c1cc(COc2ccc(F)cc2Cl)on1)N1CCN(C2CCCC2)CC1 | inactive |
| O=C(CN(Cc1ccco1)C(=O)CNS(=O)(=O)c1ccccc1)NCc1ccccc1 | inactive |
| COc1ccc(CCNC(=O)c2c(C)nn(CC(C)C)c2Cl)cc1OC | inconclusive: 25.1 µM [quencher, side channel, single point] |
| CCCCNC(=O)NNC(=O)c1ccco1 | inactive |
| Cc1nc2c(C)cccc2cc1C(=O)N/N=C/c1ccc(C(=O)O)cc1 | inactive |
| CCOC(=O)C(C)Sc1nnc2c3ccccc3n(C)c2n1 (stereo not drawn) | inconclusive: 31.6 µM [quencher, single point] |
| Cc1c(C)c2c(OCC(=O)N3CCC(O)CC3)cc3c(c2oc1=O)CCC(C)(C)O3 | inconclusive: 14.1 µM [quencher, side channel, partial curve] |
| Cc1cccc(NC(=O)Cn2c(=O)n(Cc3ccco3)c(=N)c3c4c(sc32)COC(C)(C)C4)c1 | inactive |
| Cc1cc(-c2nnc(-c3cc4ccccc4oc3=O)o2)c(C)n1-c1ccccc1 | inconclusive: 17.8 µM [quencher, side channel, partial curve] |

| Structure (SMILES) | Potency |
| --- | --- |
| COc1cccc(NC(=S)NNC(=O)C(C)n2nc(C)c([N+](=O)[O-])c2C)c1 (stereo not drawn) | inactive |
| NC(=O)N=Nc1c(O)[nH]c2ccc([N+](=O)[O-])cc12 | inconclusive: 2.82 µM [quencher, side channel, full curve] |
| Cc1sc2ncnc(NCCc3ccc(S(N)(=O)=O)cc3)c2c1C | inconclusive: 39.8 µM [fluorescent, side channel, single point] |
| CC(C)N1CCC(N2CCN(CC#Cc3ccccc3)CC2CCO)CC1 (stereo not drawn) | inactive |
| COc1ccc(OC)c(NC(=O)C(=O)NNC(=O)C23CC4CC(CC(C4)C2)C3)c1 | inactive |
| COc1ccc2ccccc2c1C(O)c1nccn1C (stereo not drawn) | inconclusive: 15.8 µM [quencher, side channel, partial curve] |
| Cn1nc(C(F)(F)F)c(C#N)c1N1CCN(c2ccc(F)cc2)CC1 | inactive |
| Cc1ccc(C(=O)NC2CC3CCC(C2)N3Cc2ccco2)cc1 (stereo not drawn) | inconclusive: 12.6 µM [inhibitor, single point] |
| CCN1C=CC2=C(C#N)C(N)C(C#N)(C#N)C(c3ccccc3C(F)(F)F)C2C1 (stereo not drawn) | inconclusive: 39.8 µM [quencher, side channel, partial curve] |
| COc1cc(C(=O)Nc2nnc(S(=O)(=O)N3CCCCCC3)s2)cc(OC)c1OC | inactive |
| [O-]c1n[n+](-c2ccc(Cl)cc2)cc2ccccc12 | inconclusive: 15.8 µM [quencher, side channel, partial curve] |
| COc1ccc(-n2nc(C(=O)NCC(=O)N3CC(C)CC(C)C3)c3ccccc3c2=O)cc1 (stereo not drawn) | inconclusive: 15.8 µM [quencher, side channel, partial curve] |
| CN(C)c1ccc(/C=C2\C(=N)N3N=C(CC(=O)N4CCCCC4)SC3=NC2=O)cc1 | inconclusive: 11.2 µM [quencher, side channel, partial curve] |
| C=CCn1c(SCC(N)=O)nnc1-c1cccc(Br)c1 | inactive |
| O=C(O)c1ccccc1NC(=O)c1cc2ccccc2oc1=O | inconclusive: 14.1 µM [quencher, partial curve] |
| CC1Cc2ccccc2N1C(=O)CCn1c(=O)oc2ccccc21 (stereo not drawn) | inconclusive: 8.91 µM [quencher, side channel, single point] |
| Cc1nc([N+](=O)[O-])c(Br)n1Cc1ccccc1 | inconclusive: 28.2 µM [quencher, side channel, partial curve] |
| Fc1ccc(CNn2cnnc2SCc2ccc(F)cc2)cc1 | inconclusive: 39.8 µM [quencher, side channel, single point] |
| CNC(=S)N=Nc1c(O)[nH]c2ccc(C(C)C)cc12 | inconclusive: 6.31 µM [quencher, side channel, full curve, poor fit] |
| CCC(C)(C)n1nnnc1CN1CCN(C(c2ccccc2)c2ccccc2)CC1 | inactive |
| CN1CCN(C2=C(Cl)C(=O)N(c3ccc(Cl)cc3)C2=O)CC1 | inactive |

| Structure (SMILES) | Potency |
| --- | --- |
| CN(C)N=C1c2cc(S(=O)(=O)N3CCOCC3)ccc2-c2ccc(S(=O)(=O)N3CCOCC3)cc21 | inconclusive: 2.51 µM [quencher, side channel, full curve] |
| O=C(N/N=C/c1ccc2c(c1)OCO2)c1cccnc1 | inconclusive: 28.2 µM [quencher, side channel, partial curve] |
| O=C(c1ccc2c(c1)OCCO2)N1CCN(c2ccc([N+](=O)[O-])cc2)CC1 | inconclusive: 25.1 µM [quencher, side channel, partial curve] |
| CN(NC(=O)c1ccccc1F)c1ccc([N+](=O)[O-])cn1 | inconclusive: 31.6 µM [quencher, single point] |
| Cc1onc(-c2c(Cl)cccc2Cl)c1C(=O)NC(=S)Nc1sc2c(c1C(N)=O)CCC(C)C2 (stereo not drawn) | inconclusive: 0.126 µM [fluorescent, side channel, partial curve, poor fit] |
| CCOC(=O)/C=c1\s/c(=C\c2sccc2C)c(=O)n1CC(=O)NCc1ccc(C)cc1 | inactive |
| O=C(c1ccc2ccccc2c1)C1CCCN(C(=O)c2cnccn2)C1 (stereo not drawn) | inconclusive: 17.8 µM [quencher, side channel, partial curve] |
| O=[N+]([O-])c1ccc(NC2CCN(Cc3ccccc3)CC2)c([N+](=O)[O-])c1 | inconclusive: 12.6 µM [quencher, side channel, partial curve] |
| COc1ccc(CCNc2ccc(C(CC(N)=O)NC(=O)c3cc(OC)ccc3OC)cc2[N+](=O)[O-])cc1 (stereo not drawn) | inconclusive: 25.1 µM [quencher, side channel, partial curve] |
| Cc1ccc(C2CC(C(F)F)n3ncc(C(=O)Nc4c(C)nn(Cc5c(F)cccc5Cl)c4C)c3N2)cc1 (stereo not drawn) | inconclusive: 8.91 µM [quencher, side channel, single point] |
| Nc1ccc2nc3c(=O)n(C4CCCCC4)c(=O)[nH]c3nc2c1 | inconclusive: 7.94 µM [quencher, partial curve] |
| C[C@H](O)C(=O)C1=Nc2c(nc(N)[nH]c2=O)NC1 | inconclusive: 10 µM [quencher, side channel, partial curve] |
| CC(=O)Nc1nc(N)n(-c2ccccc2)n1 | inactive |
| COc1ccc(NC(=O)c2nn(C)cc2[N+](=O)[O-])cc1 | inconclusive: 25.1 µM [quencher, partial curve] |
| Cc1ccc(OCCC(=O)OCC(=O)NCCc2ccccc2)cc1 | inactive |
| CCCCC1=CC2=C(c3ccco3)C(=O)C(C)(OC(=O)c3ccc(OC)cc3)C(=O)C2=CN1CCCN(CC)CC (stereo not drawn) | inconclusive: 39.8 µM [quencher, side channel, single point] |
| N/C(=N\OC(=O)c1ccc(Cl)c([N+](=O)[O-])c1)c1ccccn1 | inconclusive: 3.98 µM [quencher, side channel, full curve] |
| CC1CCCN(c2ccc([N+](=O)[O-])s2)C1 (stereo not drawn) | inconclusive: 11.2 µM [quencher, side channel, partial curve] |
| Cc1ccc(S(=O)(=O)c2nnn3c2nc(N2CCOCC2)c2ccccc23)c(C)c1 | inconclusive: 79.4 µM [inhibitor, partial curve] |
| Cc1ccc(C(=O)c2c(NC(=O)c3ccccc3)sc(C)c2C)cc1 | inconclusive: 0.794 µM [fluorescent, side channel, single point] |
| Cc1ccc([N+](=O)[O-])c2cccnc12 | inconclusive: 20 µM [quencher, side channel, partial curve] |
